# The campaign covered roughly 45,000 compounds. About 200 (0.44%) were called active. Another 7% or so got no clear call; they are omitted. Calls follow the shape of the dose curve; as a rule, active = well fitted activation curve with a large enough effect; inconclusive = small, poorly fitted or top-dose-only effect; inactive = no such curve, though single readings can be large or run the other way. This is one part of the list.
# Assay: qHTS of TDP-43 Inhibitors: NCGC Sytravon Library Screen; also: 0% is about no effect; nearly all actives have a fitted effect of over 55% in size
# Details: yeast TDP-43 toxicity rescue, BacTiter-Glo growth, 24 h; series mostly up to 46.1 µM; growth rescue (activation): at the top concentration
# Method in brief: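 TDP-43-expressing yeast, pregrown in raffinose, seeded at OD600 0.02 in galactose medium with compound for 24 hr at 30 deg C. Growth read by BacTiter-Glo luminescence, so rescue of toxicity appears as activation.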
row,SMILES,growth rescue (activation)
1,Cc1cccc(OCC(=O)NCC(=O)N/N=C/c2ccccc2)c1,inactive: 18.7%
2,CN(C)c1ccc2c3c(ccc(N(C)C)c13)COC2,inactive: 3.63%
3,COc1ccc(Cc2nnc(NC(=O)C3CC(=O)N(c4ccccc4)C3)s2)cc1OC (stereo not given),inactive: -10.6%
4,CCCc1nnc(SCC(=O)Nc2nnc(CC)s2)n1CC1CCCO1 (stereo not given),inactive: 4.25%
5,CC(/C=N/NC(=O)CN1CCN(Cc2ccc(Cl)cc2)CC1)=C\c1ccco1,inactive: 2.25%
6,CC(=O)Nc1ccc(CNc2nc(NCCN(C)C)nc3cc(-c4ccccc4)sc23)cc1,inactive: 7.96%
7,CCc1ccc(Oc2cc(Cl)nc(N)n2)cc1,inactive: 30.5%
8,CC(C)n1c(=O)[nH]c2cc(C(=O)Nc3ccccc3)ccc21,inactive: 12.2%
9,CCN1CCN(Cc2c(C)[nH]c3ccc(OC)cc3c2=O)CC1,inactive: 13.7%
10,O=C1NN(c2cccc(Br)c2)C(=O)/C1=C\c1ccccc1,inactive: -24%
11,O=C(CCCN1C(=O)/C(=C\c2cccs2)SC1=S)Nc1ccc(O)cc1,inactive: 9.93%
12,CC1=CC2=NC(=O)CC(C)(C(=O)N(CC(=O)NC3CCCC3)c3ccccc3F)N2C=C1 (stereo not given),inactive: 14.6%
13,COc1ccc(OCC(=O)NCCNC(=O)c2ccncc2)cc1,inactive: -4.35%
14,Cc1cc(C)c(C)c(S(=O)(=O)N2CCNCC2)c1C,inactive: 2.1%
15,COc1cc2c(cc1OC)/C(=C/C(=O)c1cccc([N+](=O)[O-])c1)NCC2,inactive: -1.6%
16,Cc1nnc(NC(=O)CSc2nnc(CC(=O)Nc3ccccc3F)n2C)s1,inactive: 8.75%
17,O=C(NCCc1nc2ccccc2[nH]1)/C(=C/c1ccc2c(c1)OCO2)NC(=O)c1ccccc1Cl,inactive: -0.456%
18,CN1CCN(C(=O)c2ccc(Cn3cc(Cl)cn3)o2)CC1,inactive: 6.94%
19,NS(=O)(=O)c1ccc(CCNC(=S)Nc2ccc(S(N)(=O)=O)cc2)cc1,inactive: 14.5%
20,O=C(CNCCN1CCOCC1)Nc1ccccc1Sc1ccccc1,inactive: -1.32%
21,COc1ccccc1CN1C[C@@H]2C[C@@H](c3[nH]c4ccc(C)cc4c3C)N3CCC[C@@]23C1=O,inactive: 5.59%
22,Cn1cc(C(=O)c2cccc(Cl)c2)cc1C#N,inactive: -5.88%
23,O=C(O)CCSc1ncnc2sc(-c3ccccc3)cc12,inactive: 15.4%
24,CCN1C(=O)N(CC)C2C1N(C(C)=O)C(=O)N2C(C)=O (stereo not given),inactive: -5.19%
25,COc1ccc(CCN(C)C(=O)CCc2nnc(-c3ccccc3)o2)cc1OC,inactive: 19.9%
26,COc1ccc(-c2csc(N3CCC(c4ccccc4)CC3)n2)cc1,inactive: 2.66%
27,Cc1ccc(-c2c[n+](CC(=O)OCc3ccccc3)c3n2CCC3)cc1,inactive: 10.2%

row,SMILES,growth rescue (activation)
1,CC(=O)Nc1ccc(NC(=O)CSc2nnc(-c3cc4ccccc4o3)n2C)cc1,inactive: 6.85%
2,O=C(C1=C(O)C(=O)N(Cc2ccccc2)C1c1cccnc1)c1ccco1 (stereo not given),inactive: 23.1%
3,CCc1c(C(=O)N/N=C/c2ccc(OCc3ccc(F)cc3)c(OC)c2)nnn1-c1nonc1N,inactive: 16.8%
4,CC1CCCC(NC(=O)COC(=O)COc2ccc(C#N)cc2)C1C (stereo not given),inactive: 15.1%
5,COc1ccc(C2C3=C(CC(C)(C)CC3=O)Nc3cc4c(cc32)OCO4)cc1 (stereo not given),inactive: 29.9%
6,COc1cccc(CC(=O)NCC2(N3CCCCC3)CCCCC2)c1,inactive: 4.77%
7,CC(=O)NS(=O)(=O)c1ccc(NC(=O)c2ccc(-n3nc(C)cc3C)cc2)cc1,inactive: 9.12%
8,O=C(O)C1CCCN1c1nc(C(F)(F)F)nc2ccccc12 (stereo not given),inactive: -0.315%
9,COc1ccc(OC)c(NC(=O)Cn2c(CCC(=O)O)ccc2-c2ccccc2)c1,inactive: -6.35%
10,CC(=O)NCCC(=O)N(C)CC1CCN(CCc2cccc(C(F)(F)F)c2)CC1,inactive: 7.1%
11,COc1ccc(OC)c(-c2csc(NC(=O)Cc3ccc(OC)c(OC)c3)n2)c1,inactive: 30.2%
12,CC(C)CCN1C(=O)c2ccccc2CC1(C)C(=O)NC1CCCCC1 (stereo not given),inactive: 8.38%
13,CCN(CC(=O)NC(=O)NCc1ccco1)Cc1nc2ccccc2c(=O)[nH]1,inactive: 11.2%
14,O=C(CCCn1c(=O)[nH]c2ccsc2c1=O)NC1CCCCC1,inactive: -14.1%
15,COc1cc2c(cc1OC)CN(C(=O)c1ccc(S(=O)(=O)N3CCCCC3)cc1)CC2,inactive: 19.7%
16,Cc1cc(/C=C(/C#N)c2nc3ccccc3[nH]2)c(C)n1-c1cc(C(=O)O)cc(C(=O)O)c1,inactive: 1.66%
17,COc1cc(/C=N/OCC(=O)NC23CC4CC(CC(C4)C2)C3)ccc1OCc1ccccc1,inactive: 10.9%
18,Cc1ccnc(NC(c2cccnc2)c2ccc3cccnc3c2O)c1 (stereo not given),inactive: 1.15%
19,Cc1cccc(/C=N/NC(=O)c2ccc(NC(=O)c3ccc(F)cc3)cc2)n1,inactive: 17.5%
20,COc1ccccc1N1CCN(C2CCN(C(=O)c3ccc(F)cc3)CC2)CC1,inactive: 5.77%
21,c1ccc(-c2nnc(-c3ccccn3)nc2NC2CCCCC2)cc1,inactive: -64.5%
22,Cc1onc(C(=O)NCc2cccs2)c1[N+](=O)[O-],inactive: 8.14%
23,O=C(NC1CC1)C1CCN(C2CCN(C(=O)/C=C/c3cccs3)CC2)CC1,inactive: 2.53%
24,COc1ccc(/C=C/C=C2\N=C(SC)SC2=O)cc1,inactive: 1.74%
25,C=CCn1c(=O)c2ccccc2n2c(SCC(C)=O)nnc12,inactive: 7.4%
26,Cc1cc(C(=O)Nc2nnc(-c3ccccc3)s2)no1,inactive: -12.8%
27,CCOc1ccc(C(C(=O)NCC2CCCO2)N(C(=O)c2snc(C(N)=O)c2N)c2cccc(F)c2)cc1 (stereo not given),inactive: 4.32%

row,SMILES,growth rescue (activation)
1,Cc1ccc2c(c1)C(C)(c1ccccc1)CC(C)(C)N2C(=O)c1ccc(F)cc1 (stereo not given),inactive: -8.61%
2,Cc1ccc(N2C(=O)CC(Cc3cccc(C)c3)C2=O)cc1 (stereo not given),inactive: 18.1%
3,COc1ccc(NC(=O)C2CC(c3ccc(Cl)cc3)=NO2)cc1OC (stereo not given),inactive: 7.89%
4,Cc1cc(NC(=O)c2ccc(N3C(=O)C4C5C=CC(C5)C4C3=O)cc2)no1 (stereo not given),inactive: -9.83%
5,COc1cc(OC)cc(C(=O)N[C@H](C(=O)NCc2ccco2)C(C)C)c1,inactive: 9.15%
6,COc1ccc(NC(=O)O/N=C/c2ccncc2)cc1,inactive: -5.29%
7,CCOc1ccc(-n2cc(-c3ccc(OC)c(OC)c3)[nH]c2=S)cc1,inactive: 24.3%
8,CCCOc1ccc(C(=O)NCCc2ccccc2)cc1,inactive: 15.8%
9,Cc1ccc(-c2c3c(=O)n(C)c(=O)n(C)c3cn2N2CCOCC2)cc1,inactive: 29.5%
10,O=C(c1nn(Cc2ccccc2)c(=O)c2ccccc12)N1CCN(C/C=C/c2ccccc2)CC1,inactive: 5.89%
11,CSCCC(C)N1CCC(Oc2ccc(C(=O)N3CCCC3)cc2)CC1 (stereo not given),inactive: -6.22%
12,CCCC1=Nc2cc(C(=O)NCCCOCC)ccc2Sc2ccccc21,inactive: 21.5%
13,CC1CCCC(NC(=O)COC(=O)CSc2ccc3ccccc3c2)C1C (stereo not given),inactive: -6.49%
14,CCn1cc(C(=O)O)c(=O)c2cc(F)c(N3CCN(C(=S)NC(=O)c4cccc(C)c4)CC3)cc21,inactive: 28.7%
15,CN(C)CCCNS(=O)(=O)c1ccc(N2CCN(Cc3ccc4c(c3)OCO4)CC2)c([N+](=O)[O-])c1,inactive: -11.3%
16,c1ccc(N2CCCCC2)c(Nc2nc3ccccc3n3cnnc23)c1,inactive: 18.5%
17,CCCC(C)NC(=O)CSc1nc2ccc(C)cc2[nH]1 (stereo not given),inactive: -18.2%
18,O=C(CC12CC3CC(C1)CC(CC(=O)NC1=NCCS1)(C3)C2)NC1=NCCS1,inactive: 10.1%
19,CN(C)C(CNC(=O)C1CCN(C(=O)/C=C/c2ccccc2)CC1)c1ccccc1 (stereo not given),inactive: -6.21%
20,COc1ccc(C(O)c2ncc(-c3ccccc3OC)[nH]2)cc1F (stereo not given),inactive: 5.72%
21,COc1ccc(C(=O)NC(C)c2ccccc2)cc1Br (stereo not given),inactive: 5.42%
22,Cc1ccc(-c2csc(NC(=O)c3ccc4c(=O)n5c(nc4c3)CCCCC5)n2)cc1,inactive: -1.79%
23,CCC(CC)c1nnc(NC(=O)CN2C(=O)C3C4C=CC(C4)C3C2=O)s1 (stereo not given),inactive: -12.2%
24,COc1ccc(Nc2ccc(S(=O)(=O)N3CCCCC3)cc2[N+](=O)[O-])cc1OC,inactive: 22.5%
25,COc1ccc(CSCCc2n[nH]c(=S)n2-c2ccccc2)cc1C,inactive: 16.6%
26,CN(C)S(=O)(=O)c1cccc(C(=O)N=C2N=C3C=CC(Cl)=CN3Cc3ccccc32)c1,inactive: 17.8%
27,CC(C)(C)OC(=O)N/N=C\c1ccc[nH]1,inactive: 4.9%

row,SMILES,growth rescue (activation)
1,O=C1CCc2cc(S(=O)(=O)NCCCC(=O)N3CCN(Cc4ccc5c(c4)OCO5)CC3)ccc2N1,inactive: 0.423%
2,O=C(C(c1ccccc1)c1ccccc1)N1CCN(CCN2C(=O)c3cccc4cccc(c34)C2=O)CC1,inactive: -5.28%
3,Cc1nc2ccccc2nc1CN1CCN(Cc2ccc(F)c(F)c2)C(CCO)C1 (stereo not given),inactive: -7.19%
4,CCCCOc1cc(C)nc(NCc2ccccc2)n1,inactive: 5.02%
5,COc1ccc(C2C(C#N)=C(N)Oc3cc(C)n(Cc4ccncc4)c(=O)c32)cc1 (stereo not given),inactive: 23.8%
6,CCCS(=O)(=O)N1CCC(C(=O)NCCN2CCCC2)CC1,inactive: -0.7%
7,CC(=O)Nc1ccc(SCC(=O)NC(=O)c2ccc(S(=O)(=O)N(C)C)cc2)cc1,inactive: 24.2%
8,CC(O)(c1ccccc1)c1nc(-c2ccc(Cl)cc2)cs1 (stereo not given),inactive: -25.8%
9,COc1ccc(NC(=O)C2CCCN(S(=O)(=O)c3c(C)[nH]c(=O)[nH]c3=O)C2)cc1Cl (stereo not given),inactive: 0.449%
10,CCN(CC)S(=O)(=O)c1ccc(S(=O)(=O)NCc2cccs2)cc1,inactive: -17.7%
11,O=C(Nc1ccc(NC(=O)c2ccccc2F)cn1)c1ccco1,inactive: -3.53%
12,COc1cc([N+](=O)[O-])ccc1-c1ccc(/C=N/NC(=O)OC(C)(C)C)o1,inactive: 9.36%
13,Cc1nc2nc(C)c(CCC(=O)NC3CCCCC3)c(C)n2n1,inactive: 14.2%
14,CCC(Sc1nc2ncccc2o1)C(=O)Nc1cccc(C)c1 (stereo not given),inactive: 9.26%
15,CC(=O)Nc1cccc(-c2ccnc3c2CC(C)(C(=O)Nc2cccnc2)O3)c1 (stereo not given),inactive: -5.72%
16,O=C(NCc1ccco1)c1ccc(-c2ccc3nccn3c2)cc1,inactive: -0.73%
17,CC1(C)c2[nH]c3ccccc3c2C[C@H]2C(=O)N(N)CC(=O)N21,inactive: 9.33%
18,CCC(C)C(NS(=O)(=O)c1ccc(C)cc1)C(=O)N1CCOCCOCCOCC1 (stereo not given),inactive: 5.61%
19,O=C(NCCc1ccc2c(c1)OCCO2)c1ccc([N+](=O)[O-])cc1Cl,inactive: 21.5%
20,COc1ccccc1CCNC(=O)CCCn1c(=O)c2cccn2c2cccnc21,inactive: 10.9%
21,CNC(=S)NCCN1CCOCC1,inactive: 20.4%
22,CCC/C=N/NC(=O)CNC(=O)c1ccccc1Cl,inactive: 0.963%
23,O=CC1=C(N2CCOCC2)/C(=C\c2ccccc2)CC1,inactive: 0.476%
24,COC(=O)c1ccc(NC(=O)Nc2ccc(F)cc2F)cc1,inactive: 9.22%
